System: mCMV
Conditions: mouse, in vivo

## CCCC(C(N)=O)C(C)CC (stereo not shown) [SPD, 3-methyl-2-propylpentanamide]
  increase of survival: three-fold

Reference: patent US20190125701A1 (priority 2016, published 2019)
